Reference: the supplement of paper PMC3334620
The full ranking holds about 33,000 sequences; the median of “E-score (-0.5 to 0.5)” is about -0.04, and the highest 2% start at about 0.36. The list shows a part of the results.

target: T1, Hmlalpha2 (UniProt P0CY09); assay: PBM E-score (8-mer binding enrichment) (E-score (-0.5 to 0.5)); higher = stronger / more preferred TF binding; most listed sequences are background and not binding sites; settings: protein concentration: 200 nM; construct: GST-full length
T1 sequence: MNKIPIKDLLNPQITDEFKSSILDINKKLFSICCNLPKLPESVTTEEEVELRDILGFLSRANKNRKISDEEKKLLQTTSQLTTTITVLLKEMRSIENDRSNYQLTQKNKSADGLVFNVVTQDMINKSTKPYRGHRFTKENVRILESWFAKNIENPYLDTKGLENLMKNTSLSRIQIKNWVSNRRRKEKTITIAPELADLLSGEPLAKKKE
Outline: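 Bound GST-tagged yeast transcription factors, applied at about 100-200 nM to double-stranded universal all-10-mer Agilent arrays, were detected with fluorescent anti-GST. Scans were normalised with masliner. A modified Wilcoxon-Mann-Whitney statistic, the E-score, was assigned to each ungapped eight-base word pooled with its reverse complement by the Universal PBM Analysis Suite.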

Row | Sequence | PBM E-score
1 | CGCGATCA | 0.106
2 | AAGCAAAG | -0.00833
3 | CTGTGTCA | 0.0766
4 | AGATGCCC | -0.186
5 | GCAGTAGA | -0.19
6 | CGCTTATA | 0.00449
7 | CGACGAAC | 0.0732
8 | ACTTTCTG | -0.0407
9 | CGTCTTTC | -0.222
10 | AGACTCCT | -0.234
11 | CGCCGGCC | -0.214
12 | ACGCTTCG | 0.0459
13 | TCACGAAA | 0.1
14 | ATCTAGGC | -0.217
15 | CACTCCAC | -0.141
16 | AGACTCCC | -0.456
17 | TGCCTCAA | -0.176
18 | ACCGCGGC | -0.263
19 | ACTACCGC | -0.0698
20 | CAACCTGC | 0.0166
21 | AAGGCTCG | -0.286
22 | CCCTTCGG | -0.217
23 | CCGTGGCC | -0.367
24 | CAGGACCA | -0.233

Row | Sequence | PBM E-score
25 | ATCCATGA | -0.265
26 | CTGAAAAG | -0.0818
27 | GAACGTTC | 0.0114
28 | AGCGATTA | -0.0258
29 | ATTGCCAC | 0.0557
30 | GAGCGTAC | -0.102
31 | AGCCGAAG | -0.115
32 | CTGAGCAA | -0.0846
33 | CCTTGCAC | -0.0079
34 | GACGTCTC | -0.101
35 | GAGTGAAA | 0.0244
36 | ATCTAGGG | -0.193
37 | TCCAACCA | -0.124
38 | ATCGTGCC | -0.0545
39 | AGGCTCCC | -0.339
40 | CAGATCTC | -0.232
41 | ACCAAAAA | 0.124
42 | AACCAAAC | -0.0507
43 | AGCACACC | -0.245
44 | ATTTAGGC | 0.0493
45 | CCTACAGA | -0.108
46 | ATCCTAGG | -0.289
47 | ACCCCGGT | -0.362
48 | CTGGAGCC | -0.238

Row | Sequence | PBM E-score
49 | AATGGGGT | 0.106
50 | GGTTAAAC | 0.156
51 | CGTAGTTC | 0.0471
52 | GCCGAGGC | -0.0332
53 | ATTTGGGC | -0.101
54 | GCAAACCA | -0.0632
55 | CTTAAGGC | -0.229
56 | ATCGCTTC | 0.00567
57 | AGCGAGAT | -0.217
58 | CGAGCACG | -0.161
59 | CTGCAGGC | -0.285
60 | CTATGCCA | -0.0644
61 | GCTAAACA | 0.213
62 | GGTTATAA | 0.0757
63 | CAACCACG | 0.111
64 | AACCAAGG | -0.0859
65 | GCCTCAAA | -0.207
66 | AAAGGCGT | -0.14
67 | CGAGGATA | -0.219
68 | ATCGTGGA | -0.102
69 | AAGCCTAT | 0.0328
70 | GAAGCGAC | -0.125
71 | CAGGCAGA | -0.164
72 | GTAGCTAA | 0.0867

Row | Sequence | PBM E-score
73 | CTAGCGGC | -0.356
74 | AACTGGTC | -0.12
75 | AGTAGGCC | -0.0795
76 | GCCGCGTA | 0.341
77 | AGAGGGTG | -0.234
78 | AGCCTTCG | -0.267
79 | CATGCTCA | 0.121
80 | CATGCCTC | 0.191
81 | CTAAGTGC | -0.18
82 | CCATAGGG | -0.243
83 | AGTCGTCG | -0.249
84 | AGATGATC | -0.0746
85 | GTCTGCGA | -0.103
86 | CGTCATTC | 0.0489
87 | TGCAAGCA | 0.0392
88 | ACCAGCTA | 0.0143
89 | ATGCGCAA | -0.182
90 | ATTATCCC | 0.0955
91 | CGTGAAAG | 0.0792
92 | ACTGCCCA | -0.0607
93 | ATTTGGCC | 0.00302
94 | CAGCTCAA | -0.182
